Assay results as given in PubChem BioAssay AID894 (National Center for Advancing Translational Sciences (NCATS), 2007).
“And” between values parts separate entries of the source, which are not always exact repeats. Equal entries are not always repeated. Hit rate of the full screen: of about 150,000 compounds, about 6,500 (4.3%) were called active. Inconclusive results, whose numbers are uncertain, are shown with a selection of clear calls. The call rests on the fitted dose curve; in most records, active means well fitted inhibition curve with a large enough effect (not every such curve was filed as active); inconclusive means small, poorly fitted or top-dose-only effect, or another doubt; inactive means no such curve, though single readings can be large or run the other way. A potency beside an inconclusive call is a rough fit, not a confirmed value.

Molecular target: 15-hydroxyprostaglandin dehydrogenase [NAD(+)] (Homo sapiens) (UniProt P15428)
Test: qHTS Assay for Inhibitors of HPGD (15-Hydroxyprostaglandin Dehydrogenase)
Details: purified HPGD, NADH fluorescence kinetic, PGE2 substrate; activity change, negative = inhibition: active compounds read low
Outline: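 NADH formation kinetics: reaction with 30 uM PGE2 and 1 mM NAD+ (final), 20 nM enzyme, Tris-HCl pH 8 with Tween 20, after 15 min compound preincubation at room temperature. Fluorescence change, last versus first of five reads.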
On the % scale 0 is the no-effect control and ±100 the full control effect; potency means the concentration at half of the fitted maximal effect; tags describe the fitted curve by direction and shape.

Sequence of UniProt P15428 (P15428 whole entry, looked up): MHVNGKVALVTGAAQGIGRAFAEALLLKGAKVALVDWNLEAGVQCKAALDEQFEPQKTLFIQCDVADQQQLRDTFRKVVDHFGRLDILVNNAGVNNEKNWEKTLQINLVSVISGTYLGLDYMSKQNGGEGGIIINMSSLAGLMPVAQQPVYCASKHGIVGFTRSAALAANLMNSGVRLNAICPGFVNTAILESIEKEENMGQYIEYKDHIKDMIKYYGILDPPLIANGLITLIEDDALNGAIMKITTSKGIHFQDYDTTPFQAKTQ

Activity change, negative = inhibition, inactive:
Cc1ccc(C(=O)NCCSc2ccccc2)cc1S(=O)(=O)Nc1ccccc1 -8.8%, Cc1ccccc1NC(=O)Cn1c(=O)n(Cc2ccccc2)c(=O)c2c(C)c(C)sc21 -4.53%, O=C(c1ccc(N2CCN(S(=O)(=O)c3ccccc3)CC2)c([N+](=O)[O-])c1)N1CCOCC1 -0.639%, O=C(Nc1cccc(C(F)(F)F)c1)/C(=C/c1ccco1)NC(=O)c1cccs1 -22%, O=C(COC(=O)CNC(=O)c1cccc([N+](=O)[O-])c1)Nc1ccccc1OC(F)F -21%, Cc1cc(C)nc(N2CCC(C(=O)Nc3cccc(C(F)(F)F)c3)CC2)n1 -8.49%, CCN1CCN(C(=O)N[C@H](C(=O)N[C@@H]2C(=O)N3C(C(=O)O)=C(CSc4nnnn4C)CS[C@@H]23)c2ccc(O)cc2)C(=O)C1=O -8.65%, O=C(CSc1nc2ccccc2[nH]1)N/N=C/C=C/c1ccccc1[N+](=O)[O-] -10.4%, O=C(COc1ccccc1)N1CCc2ccccc2C1 -7.89%, Cc1cc(C)c2nc(SCC(=O)NCCC3=CCCCC3)cc(C)c2c1 -1.49%, O=C(NNC(=O)c1cc(-c2ccccc2)n(-c2ccccc2)n1)c1cccc([N+](=O)[O-])c1 -9.92%, Cc1ccc(S(=O)(=O)n2cnc3cc([N+](=O)[O-])ccc32)cc1C -0.0521%, COc1ccc(/C(O)=C2/C(=O)C(=O)N(CC3CCCO3)C2c2cccc(OC)c2)cc1 (stereo unspecified) -15.2%, NS(=O)(=O)c1ccc(NCc2ccccc2OCc2ccc(F)cc2)cc1 -14.8%, COc1nc(OC)nc(N2CCC(NC(=O)C(Cc3ccc(C(C)C)cc3)NC(C)=O)CC2)n1 (stereo unspecified) -12.4%, O=C(NC1CCCCC1)c1cccnc1C(=O)O -21.4%, COCC(=O)N1CCC2(CCN(Cc3ccncc3)CC2)CC1 -7.66%

Potency, inconclusive:
COc1ccc(-c2csc(NC(=O)c3ccc(OCC(=O)N4CCOCC4)c(OC)c3)n2)cc1OC 25.1 µM [inhibitor, partial curve, poor fit], CCS(=O)(=O)N1Cc2ccccc2CC1C(=O)Nc1nnc(SCc2ccc(F)cc2)s1 (stereo unspecified) 28.2 µM [inhibitor, partial curve], CCOC(=O)c1c(N)sc(C(=O)N2CCCC2)c1C 22.4 µM [inhibitor, partial curve], COc1ccc2oc(=O)c(C(=O)n3ccc(C)n3)cc2c1 31.6 µM [inhibitor, partial curve], CCOCCCNC(=S)Nc1cc(C)cc(C)c1 31.6 µM [inhibitor, partial curve], COc1ccc(-n2nnnc2SCC(=O)Nc2cccc(NC(C)=O)c2)cc1OC 20 µM [inhibitor, partial curve], Cc1ccc(S(=O)(=O)c2c(N)n(NC(=O)c3ccco3)c3nc4ccccc4nc23)cc1 3.55 µM [inhibitor, full curve, poor fit], CN(C)c1oc(-c2ccc(OCc3ccc(Cl)cc3)cc2)nc1C#N 28.2 µM [inhibitor, partial curve], Cc1ccccc1Nc1nc(CSc2nnnn2-c2ccccc2)cs1 20 µM [inhibitor, partial curve], COc1ccc(-c2cc(C(F)(F)F)nc(SCC(=O)NCc3ccco3)n2)cc1OC 28.2 µM [inhibitor, partial curve], CCOC(=O)CCSc1nc(C(C)(C)C)cc(C(F)(F)F)c1C#N 35.5 µM [inhibitor, single point], Nc1cc(C(F)(F)F)ccc1C(=O)O 25.1 µM [inhibitor, partial curve], Cc1ccc(CNC(=O)COC(=O)c2ccc(Cl)c(N)c2)cc1 35.5 µM [inhibitor, single point], CCc1nc2c(sc3nc4c(cc32)COC(C)(C)C4)c(=O)n1Cc1ccccc1 35.5 µM [inhibitor, single point], CN1CCN(CCCNC(=O)c2cc3c(-c4ccc(Cl)cc4)nn(C)c3s2)CC1 31.6 µM [inhibitor, partial curve], COCC(=O)Nc1ccc(-c2cn3cccnc3n2)cc1 3.16 µM [inhibitor, full curve], Cn1c(SCC(=O)N2CCc3ccccc32)nnc1-c1ccc(S(=O)(=O)N2CCCC2)cc1 39.8 µM [inhibitor, single point], CN(Cc1ccccc1)S(=O)(=O)c1ccc2[nH]cc(C(=O)NCC3CCCO3)c(=O)c2c1 (stereo unspecified) 8.91 µM [inhibitor, partial curve], CCOC(=O)C(C)Oc1cccc2c(=O)n(CC(=O)NCc3ccco3)ccc12 (stereo unspecified) 28.2 µM [inhibitor, partial curve], CC(Oc1cccc(F)c1)C(=O)/C=C\N(C)C (stereo unspecified) 28.2 µM [inhibitor, partial curve], Cc1ccc(Oc2ccc(S(=O)(=O)N3CCOCC3)cc2C(N)=O)c(-n2nc3ccccc3n2)c1 25.1 µM [inhibitor, single point], Cc1ccc(-c2cn3cccnc3n2)cc1NC(=O)c1c(-c2ccccc2Cl)noc1C 28.2 µM [inhibitor, partial curve], CC1(C)CC(=O)c2sc(NS(=O)(=O)Cc3ccccc3)nc2C1 22.4 µM [inhibitor, partial curve], Cc1ccccc1Nc1nnc(SCC(=O)Nc2ccccc2[N+](=O)[O-])s1 11.2 µM [inhibitor, partial curve], COc1cc(/C=C/C(=O)NC(C)(C)C)ccc1OCc1ccccc1 31.6 µM [inhibitor, partial curve], N#CCCN1CCN(C(=S)c2ccc(-c3ccc(Cl)c(Cl)c3)o2)CC1 31.6 µM [inhibitor, single point], N#Cc1nc(-c2cccs2)oc1N1CCN(Cc2ccccc2)CC1 31.6 µM [inhibitor, partial curve], CC(=O)OC1CCC2(C)C(COc3ccc4ccc(=O)oc4c3)C(C)(O)CCC2C1(C)C (stereo unspecified) 14.1 µM [inhibitor, partial curve], COc1ccc(-c2nc(-c3ccccc3)c(-c3cccs3)[nH]2)cc1OC 31.6 µM [inhibitor, partial curve], CCOc1ccc(C2C=C(c3ccc(F)cc3)Nc3ncnn32)cc1 (stereo unspecified) 28.2 µM [inhibitor, partial curve], Cc1cccc(OCC(=O)NNC(=O)Nc2cccc(Cl)c2)c1C 6.31 µM [inhibitor, single point], COc1ccccc1Cn1nnc2c(=O)[nH]c(C3CCN(C(=O)c4ccc(C)cc4)CC3)nc21 22.4 µM [inhibitor, partial curve], CN1CCN(c2ncc3nc(CCc4ccccc4)c(=O)n(Cc4ccc(F)cc4)c3n2)CC1 25.1 µM [inhibitor, partial curve], Fc1ccc2nc(-c3ccccc3)nc(SCc3nnc(-c4ccccc4)o3)c2c1 25.1 µM [inhibitor, single point], CC(C)(C)c1ccc(S(=O)(=O)NCC(=O)Nc2ccc(-c3nc4ccccc4s3)cc2)cc1 12.6 µM [inhibitor, partial curve], CN(C)c1ccc(/C=N/NC(=O)CN2CCN(c3ccc(F)cc3)CC2)cc1 3.16 µM [inhibitor, full curve], O=C(Nc1ccccc1Cl)c1cccc(COc2cc(Cl)ccc2Cl)c1 25.1 µM [inhibitor, single point], NC(=O)C1CCN(C(=O)CN2CCCc3ccccc32)CC1 35.5 µM [inhibitor, single point], COc1ccc(OC)c(Nc2nc(-c3sc(NC(=O)C(C)(C)C)nc3C)cs2)c1 22.4 µM [inhibitor, single point], CCN(CC)S(=O)(=O)c1ccc(NC(=O)c2cc(-c3cccs3)nc3ccccc23)cc1 28.2 µM [inhibitor, partial curve]

Potency, active:
CC1CCN(C(=S)c2ccccc2O)CC1 6.31 µM, O=c1c(O)c(-c2cc(O)c(O)c(O)c2)oc2cc(O)cc(O)c12 10 µM and 12.6 µM and 7.94 µM, CCn1cc(C(=O)Nc2ccc(C(=O)N3CCCC3)cc2)c(=O)c2ccc(C)nc21 3.98 µM, CN(CC(=O)N1CCCCC1)S(=O)(=O)c1cccc2cccnc12 15.8 µM, c1ccc(Cn2ccnc2SCc2nnc(-c3ccccc3)o2)cc1 25.1 µM, Cc1cccc(Nc2n[nH]c(=S)s2)c1C 10 µM, N#CC(C#N)=C1C=CC=CN1/C(=C\c1ccco1)C(=O)c1ccc(Cl)cc1 20 µM, Nc1scc2c(C(=O)N/N=C/c3ccc(Cl)cc3)nn(-c3ccccc3)c(=O)c12 14.1 µM, Cc1cc(C#N)c(C)n1-c1cc(S(=O)(=O)N2CCOCC2)ccc1N1CCCC1 7.94 µM
